# Measured values taken from the supplement of paper PMC11417369.
# The other results are listed elsewhere or left out.
# Test system: PF3D7_0420300 AP2 domain 1 (GST-tagged)
# Assay: gcPBM binding intensity (ln(normalized median fluorescence intensity)); higher = stronger DNA binding
# Procedure, shortened: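 GST-fused DNA-binding domains of P. falciparum, expressed in E. coli, were applied at about 25 μg on average for 1 h to an Agilent 4 × 180k array of primer-extended double-stranded 36-bp intergenic genomic probes and negative controls. Binding intensity is the highest Masliner-normalised natural-log median intensity across replicate spots of either probe orientation, measured with Alexa488 anti-GST antibody and a 488 nm scan.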
row,Sequence,gcPBM binding intensity (ln)
1,AAAGAATTTGCATATACACACAAAAAAATAAATACA [CACACA_site4373],9.64
2,CTTCTTTTGTGATAAAGTACAAATATTTTGAAATAT [XGTACX_site1156],8.93
3,TTTTCTATAAGATTTGCACACAACTTATTCTATTAA [CACACA_site3752],9.41
4,ATAAATAAATAAATAAATATATATATGAAATAATGT [TGCATGCA_negctrl_site12],9.49
5,AAAAAATATAAAACGAGTACATATATAATAAGCAAA [XGTACX_site1360],9.74
6,TTTATTCTCCACACCCGTACACATTTTTTTTGCATA [XGTACX_site5615],9.71
7,AAAAAAAAAAAAAACACACACACACGCAGATATATA [CACACA_site6672],10.1
8,ATTATAGACAACTCTTTTTCTAAACTATTTTATTTT [CACACA_negctrl_site1754],9.43
9,CATAATATTTGTGAAAGTACTTATTTTACAATAGGG [XGTACX_site5004],9.1
10,TTTCTTAAAATATAAAGTACTAAAATGAAAATATAT [XGTACX_site2173],9.04
11,AAATAAAGAAATATATGTACATATATATATATATAT [XGTACX_site5131],9.33
12,TAGCCAAAAGGATATGCACACACACCCACATATATA [CACACA_site8684],9.87
13,TAAGATCCTTAAAACGCATGCAGTATTTTTATTTCT [TGCATGCA_site532],9.04
14,CATATAATTATTTTCACACATATAACTACATCTATA [CACACA_site5915],9.36
15,ATATAAATAAAAAAAAGTACATAATATATAAAAATA [XGTACX_site3065],9.56
16,CTTTTACGTTTAGGATGTACATTTAAAAAAAAAGAA [XGTACX_site8032],8.91
17,AATAAATATTAAATGACAAAAAAAAAAAAAAAAGGG [XGTACX_negctrl_site15],9.71
18,TATAATCCATAAGAAGCACACACATATATATATATT [CACACA_site8394],9.76
19,TTAAGATGCATAAATACATGCAAAGTAAATAATTCT [TGCATGCA_site517],9.1
20,TTAGCAGGACGTTTGGTGCACGTACTGTTTTTCTTT [GTGCAC_site9856],9.27
21,TATATATATATATATATATATATATATATATATATT [CACACA_negctrl_site1440],8.8
22,CATTGACCATTAATTTGTACACAAGGGGAAATGAGG [XGTACX_site1756],9.24

row,Sequence,gcPBM binding intensity (ln)
1,TCTTTCTGCTCTTATACACACAAATAAAGATTTTTT [CACACA_site2700],9.51
2,ATGAAATTTTCATATTGTACTATTAAAAATATATTT [XGTACX_site1989],9
3,TGTAGATTTTGTAACACACACATATAAATACAGATA [CACACA_site5343],9.73
4,TAAGGGATATGTATATGTACATACAAATATATATAA [XGTACX_site2892],9.11
5,AAATGTAATAAATATACACACACAAATATATATATA [CACACA_site8754],9.91
6,TTTGCTTCGATATATTCACACATTTTTTTTCTTATT [CACACA_site4499],9.61
7,AATTTCATTTTTAGAAGTACATTTATATTAAAAATC [XGTACX_site2888],8.81
8,GACACCCATAAATATACACACGCACAACACAAAATA [CACACA_site8944],9.59
9,CTTACCAAAAAACACACACACACAAAATATATAAAT [CACACA_site1870],10.3
10,TTATTTTTTAGTAGTACACACTTTTTGTACCTTTTA [CACACA_site4503],9.45
11,AATAAAAAAAAAAAAAAAAAAAAAAAGACACTAAAA [CACACA_negctrl_site1075],9.33
12,CTAAAAGAACATGTGTGTACTTATGTTCTCTTTTTT [XGTACX_site5983],9.23
13,TATTCCAAAAATGTGTGTACATAAATACAATATTAT [XGTACX_site2653],9.48
14,AAAAAGAAGAATAATACACACAAATTATTTTATATA [CACACA_site1919],9.64
15,TATAATAAATGGACGGTGCGACATGACCATATGTGT [GTGCAC_site9476],9.56
16,ATAATATATATACAAACACACAATTGCGTCCACATT [CACACA_site8515],9.72
17,TTATTTTCTTTTTCTTGTACACACATAATATGGATG [XGTACX_site1481],9.69
18,TTGTTAATAAAAATATTGGAAAGTTTATAAAATTTT [CACACA_negctrl_site1487],8.9
19,TATATTAAAGGGGTTTCACACACATGTATAATTAAT [CACACA_site7950],9.52
20,TATTATTTAATCAAATGTACATAGAAAATGTATGTA [XGTACX_site4433],9.08
21,ATGTAAAATTAATATTGTACTTTTCCATCATGATAC [XGTACX_site2669],9.14
22,AATAGGAAAGATTTTGCATGTGATATAAGTAATTTT [TGCATGCA_site657],9.27

row,Sequence,gcPBM binding intensity (ln)
1,TTTATATGATACACACGTACATATACACATATACAC [XGTACX_site8123],9.62
2,TATATATATATTTTTGCACACATTTTTTAAGGTACA [CACACA_site2145],9.53
3,CATATAATAAATAGATGTACAGACTATATATATATA [XGTACX_site6575],9.35
4,TATAATATTTATATAACACACATATAGATTTATTTA [CACACA_site6269],9.21
5,AAAAGGAAGATATATACACACATACAAATATATATA [CACACA_site5236],9.83
6,CTATTTGGGGGAAGAGTGCATGACATGAATATAAAA,9.2
7,ATTAGTATTAGATGATGTACATTTATATTGAAATAT [XGTACX_site8537],9.11
8,CTATATTATAAATATACACACATATCTTAAGTATAA [CACACA_site3096],9.33
9,TTTTTTTTTTTTTTCACACACTAATAATATTATCAT [CACACA_site4417],9.27
10,ATAAATTTTTAAAAATATGAATTATGTAATTTGTGA [CACACA_negctrl_site1621],9.1
11,GAAAACGTTTGAAGTTGTACATATGTATAAAAAGAA [XGTACX_site2304],9.43
12,ATAAAAATACAGTTAACACACATGTGTATTTATATG [CACACA_site7727],9.63
13,TGTTATTTAAATAATTCTTTTTAAAAGATGAATTAT [CACACA_negctrl_site1226],8.75
14,ATGGTCTGTTAAAGATGTACTTTTTAAAAATAAACG [XGTACX_site2583],9.01
15,AACAAACACAGACACACACACACACCCAAATGATTA [CACACA_site2431],10.2
16,ATAATATAACACAAATGTACAAAAAATAAATAAATA [XGTACX_site385],9.51
17,CATACTCACCAACACACACACACACCCATATAGAAT [CACACA_site592],10.2
18,TATATATATACTTAATGTACATATATATATATATAT [XGTACX_site3102],9.1
19,CTTTTTGAAATATTAACACACATTTTGTTAATTAAT [CACACA_site4046],9.33
20,CACAGATAAATTAACACACACACACCCATATATATA [CACACA_site3960],10.1
21,TATTTATAATAGTGTACACAATTATAAACTGAATAT [CACACA_site6041],9.26
22,CAACATATATTAATATGTACATATATATAGATATAT [XGTACX_site4107],9.3

row,Sequence,gcPBM binding intensity (ln)
1,TATTATTCATAATTTATCTTTTAAATTAAATCACAA [GTGCAC_negctrl_site288],8.66
2,ATCATAATCATAAAAAGTACAAACGATAAAATAAAT [XGTACX_site3832],9.72
3,TTACTTAAGAAACACACACACAAAAAAAAAAAAAAA [CACACA_site946],9.72
4,TTTTTTTCTGTGAGTGCATGTAATAAAATAAATTTA [TGCATGCA_site276],8.78
5,TTCAAAAATATATAATGTACACAAATATAAAAGAAT [XGTACX_site1944],9.43
6,TGTTATTTTAAAAAAAAAATTATTAACTTAAAAAAA [CACACA_negctrl_site1641],8.68
7,ATATTATATAATATACGTACATATATTATGCATAAA [XGTACX_site7895],9.11
8,ATTAAATACATTAACACACACACAAATATGTACATA [CACACA_site7372],10.1
9,TACGTAGCCACACTAACACACACAAATATGCACAAT [CACACA_site8942],9.92
10,TTATTCACTTCTTTTTAAAAAAAAAAAAAAAAAAAA [CACACA_negctrl_site223],8.37
11,TTGTTAATGGTACGAACACACATATAAAGATGCATA [CACACA_site2044],9.36
12,ATAATTTGTGGACACACACACACACCGACATATATA [CACACA_site8718],10.2
13,TTATATGAATTTTAGATTTATAATACAAGAATATTC [CACACA_negctrl_site70],8.88
14,ATTTCGAATATTAAGTGTACAATATAAATATATAAA [XGTACX_site6674],9.18
15,AAAAAAAAAAAAAAAAGTACAAATAAAAAAAAAATA [XGTACX_site4814],9.42
16,TTATTATAATCATTAGTGCATATATTATTTTTATAT,9.24
17,TATATACATATATGTACACACATTACAGATGTACAT [CACACA_site966],9.45
18,AATCTAATATAATGCACACATAAAAAAAAAATCAAA [CACACA_site2714],9.45
19,TATATTTACAATAAAACGTTATTTTTTGTTATTTTC [CACACA_negctrl_site612],9.22
20,TTTTTTTTAAAAAACACACACCTAAACAAGATATTT [CACACA_site6541],9.5
21,CATATTTTTAAATACACACACATAAAAAAAAAAAAA [CACACA_site1095],9.68
22,AAATAAAAAAGTAGTACACACTTCACGATATTTTTT [CACACA_site6015],9.42
